# Assay results as given in the supplement of paper PMC12217912.
# The other results are listed elsewhere or left out. The full chains were built here from the parent and the listed change. Values near 0.05 are background.
# B1: TEV protease; numbered along this chain (parent)
# chain: MGESLFKGPRDYNPISSSICHLTNESDGHTTSLYGIGFGPFIITNKHLFRRNNGTLVVQSLHGVFKVKDTTTLQQHLVDGRDMIIIRMPKDFPPFPQKLKFREPQREERICLVTTNFQTKSMSSMVSDTSCTFPSGDGIFWKHWIQTKDGQCGSPLVSTRDGFIVGIHSASNFTNTNNYFTSVPKNFMELLTNQEAQQWVSGWRLNADSVLWGGHKVFMVKPEEPFQPVKEATQL
# Variants of: B1
# Test: raw area under fraction-flipped curve 0-4 h after induction (AUC4h, not background-subtracted), DNA-recorder readout of cleavage of the substrate (dimensionless); higher = more cleavage of the substrate by the protease variant
# Settings: temperature: 34 °C; time window: 0-4 h after rhamnose induction
# Protocol: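 In vivo DNA recorder in E. coli TOP10(DE3) ΔrhaA at 34 °C. Each TEVp single-site mutant (parent TEVp 0) is paired with a single-site variant of the 7-mer TEVs (canonical ENLYFQ|S). The substrate sits between flexible linkers in a Bxb1-sfGFP-TEVs-SsrA fusion, so cleavage stabilises Bxb1 and speeds flipping of a recombination array, read by NGS. The value is the raw area under the fraction-flipped curve over 0-4 h after rhamnose induction (AUC4h), with ≥20 reads per time point. It is not background-subtracted; inactive controls average about 0.047.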
# 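Also: Bxb1 expression induced with 0.2% (w/v) L-rhamnose at OD600 near 0.5, cultures sampled hourly, flipped fraction per protease–substrate barcode pair counted by paired-end Illumina sequencing.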
Variant,area with substrate EALYFQS,area with substrate ECLYFQS,area with substrate EDLYFQS,area with substrate EELYFQS,area with substrate EFLYFQS,area with substrate EGLYFQS,area with substrate EHLYFQS,area with substrate EILYFQS,area with substrate EKLYFQS,area with substrate ELLYFQS,area with substrate EMLYFQS,area with substrate EPLYFQS,area with substrate EQLYFQS,area with substrate ERLYFQS,area with substrate ESLYFQS,area with substrate ETLYFQS,area with substrate EVLYFQS,area with substrate EWLYFQS,area with substrate EYLYFQS
S32E,0.0796,0.0763,0.0963,0.103,0.104,0.0955,0.101,0.0745,0.0913,0.071,0.0772,0.102,0.0907,0.0838,0.0892,0.111,0.103,0.0726,0.105
Q75P,0.0623,0.0524,0.0655,0.0566,0.0712,0.065,0.0633,0.059,0.0531,0.0616,0.0545,0.0576,0.091,,0.0585,0.0518,0.0591,0.0719,
K216S,0.102,0.1,,,,,,0.0717,,,,,,0.0926,0.114,,0.0699,,
N13S,0.115,0.0897,0.129,0.167,0.104,0.0912,0.11,0.0583,0.105,0.0843,0.0984,0.191,0.0967,,0.0892,0.102,0.102,0.0861,0.0734
G39A,0.0516,0.0457,0.0506,0.0529,0.0611,0.0445,0.0472,0.0493,0.0594,,0.0376,0.0569,0.0496,,0.0477,,0.0429,0.0461,
T30C,0.111,0.113,0.129,0.103,0.137,0.0936,,0.0977,0.109,0.0909,0.107,0.14,0.125,0.113,0.102,0.111,0.111,0.106,0.1
S16V,0.123,0.121,,0.1,0.101,0.11,0.125,0.0942,0.0967,0.0708,0.133,0.121,0.143,0.0847,0.102,0.124,0.0984,0.0956,
S16Y,0.12,0.107,,0.107,,0.0988,0.134,0.0763,0.0902,0.071,,,0.12,0.133,0.0869,,,,0.127
G136W,0.0844,,0.129,0.101,,0.0914,,0.148,,0.104,,0.118,0.0915,0.0979,0.0907,,0.0679,0.0801,
G80P,0.0873,,0.114,,,,,,,,0.0741,,0.0748,,0.0594,,,0.0851,
G80K,0.116,0.0917,,,0.103,0.0938,,0.0892,0.109,0.089,0.11,0.104,0.112,0.072,0.0802,,0.119,0.0784,0.0965
I19R,0.0571,0.0499,0.0597,0.059,0.056,0.0578,0.056,0.0511,0.0707,0.0589,0.0697,0.0607,0.0715,0.0655,0.0625,0.0408,0.0587,0.0586,0.0409
P40K,0.084,,0.125,,0.114,0.126,,0.129,0.109,0.116,0.117,0.115,0.136,0.106,0.103,,0.088,0.119,0.102
T174D,0.0983,0.113,0.0917,0.083,0.132,0.0685,0.0909,0.101,0.101,0.0692,0.117,0.0949,0.115,0.0655,0.101,0.096,0.0848,0.0754,0.1
P184S,0.0994,0.0787,0.0986,0.0601,,,0.0832,0.0806,0.0707,0.0627,0.0946,0.0776,0.0908,0.0847,0.0838,0.0815,0.0721,0.0835,0.0801
G8F,0.18,,0.124,,,,,0.0706,,,,,,,,,,0.0754,
G8S,0.0969,0.0946,0.0691,,,,0.0859,,0.132,,,,0.106,,0.102,,0.0836,,
D128I,0.143,0.128,0.124,0.145,0.108,,,,,0.108,0.116,,0.156,0.0908,0.117,0.143,,,
D128R,0.14,0.0956,0.0984,0.138,,,,0.106,0.131,,0.13,0.137,0.15,0.13,0.123,,0.0982,0.121,
I164A,0.0595,0.0688,0.0519,0.0704,0.0435,,0.0652,0.056,0.0262,0.0549,0.0787,0.0937,0.0624,0.0602,0.0443,,0.0555,0.0503,0.0728
C152K,0.0591,0.0585,,0.0534,,,,0.0771,,,,0.0544,0.0545,0.0604,0.0583,0.0837,,,0.0621
C152A,0.0645,0.0739,0.0868,0.0922,0.0929,0.0742,0.0968,0.0717,0.0814,,,,0.0909,0.0854,0.0684,,0.0755,,
T23P,0.0523,0.0488,0.0411,0.0514,0.0464,0.0372,0.12,0.0302,0.0401,0.0503,0.036,0.0364,0.0475,0.0751,0.0427,0.0486,0.0405,,0.0347
L61G,0.126,0.137,0.185,0.123,0.12,0.0975,,0.0942,0.0982,,0.133,0.127,0.123,0.12,0.101,,0.103,,0.0964
R10K,0.109,0.104,0.114,0.0904,0.0731,0.0899,0.102,0.0797,0.0641,0.104,0.0839,,0.104,0.0729,0.102,0.0907,0.0985,0.0904,
